Some structures have more than one record in an assay (separate samples or runs), and their calls can disagree.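 Method: cells in 96-well plates; compound added at one concentration; 48 h incubation; percent growth measured; values under 10 scored active.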 For part of its entries the source gives two or more results. Only these are listed. There may be further records. The screen tested this drug many times, at the concentration stated with the values; each value is one run. Counts like (3×) count equal records among those shown.
Experiments:
Assay in all cases: NCI-60 one-dose screen, 48 h (100 = growth as untreated, 0 = no growth, -100 = all killed)
SF-295 CNS = details: 2.5 mM; runs of 2000
SF-539 CNS = details: 2.5 mM
UACC-257 melanoma = details: 2.5 mM

O=c1[nH]cc(F)c(=O)[nH]1
growth (SF-295 CNS): active: 3.81, 0.483, 0.497, 0.713% | growth (SF-539 CNS; runs of 1991): active: -27.6, -33, -35.5, -27.1, -31.8, -39.4, -38.6, -20.2, -61.5, -22.8, -58.8, -18.5, -30.7, -19, -39.2, 0.419, 5.86, 9.83, -65.5, -49.8% | growth (SF-539 CNS; runs of 1992): active: -24.7, -47.1, -3.12, -56.5, -58.9, -13, -62.2 (3×), -16.5, -23.4, -1.93, -14.1 (2×), -19.4 (2×), -12.2, -67.7, -12.3, 0.306, -25.8, 6.33, -32.8, -34.7, -24.5, -44.1, -36.4, -44.5, -50, -76.6, 6.6, -61.5, 0.846, 1.48, -16.3, 4.72, -52.3, -42.7, 3.45, -81.1, -5.27, -40.8, 8.53, -42.1, -0.738, -30.2, -33.5, -63.9, -78.7, -64.5, -71, -12.1, -49.2, -36.6, -8.55, -26.9 (2×), -52.5, -26.7, -23.2, -78.1, -22.9, -79.9, -19.3, -56.9, -55.2, -36.7, -53.1, -26.8, -28.9, 3.01, -6.92, -35.8, 1.67, -82.3, -74.4, -30.7, -34.1, -26.5, -27.3, -5.9, -60.1, -20.5, -69.7, -33, -1.02, -35.2, -78.6, -67.4, -48, -43.3, -25.6, -69.9, -84.2, -18.9, -1.94% and inactive: 11.5 (2×), 13.7, 12.8, 27.7, 17.7, 58.4, 12.6, 11.3 (2×), 31.9, 56.3, 13.6, 17.2, 33.2, 25.7, 15% | growth (SF-539 CNS; runs of 1993): active: 0.132, 0.243, 0.0315, -37.7, -50.1, -57.6, -13.2, -66.1, -42.3, -78.2, -45.7, -18.3, 1.78, -24.2, -62.7, -27.3, -21.7, -16.4, 3.98, 3.78, -64.8, -14.7, -26.1, -14.5, 9.13, -30.5, -46.2, -59.4, -1.84, -12.3, -24.7, -25.4, -30.8, -22.3, -53.9, -53.2, -17.2, -40.6, -43.8% and inactive: 14.3, 14.8, 22.6, 95, 84.8% | growth (SF-539 CNS; runs of 1994): active: 3.08, -21, -33.5, -8.2, -34.9, -68.8, -67, -23, -20.1, -7.06, -20, 0, 8.18, -61.2, -28.2, 1.55, -24.2, -65.6, 6.49, -1.21, -24.5, -0.94, -51.7, -73.8, 3.3, 8.78, -41.2, 7.06, 7.42% and inactive: 11%, 18.9%, 12.1% | growth (SF-539 CNS; runs of 1995): active: 2.26, -39.9, -16.5, 7.93, -4.08, 9.76, -77.2, 4.99, -37.7, -28.1, 0.279, -15.3, -54.8, -8.87, -52.5, -17.1, -50.1, -24.7, 0.289, -72.9, -28.2, 2.38, -3.99, 0.74, -0.419, -13.4, 0.174, -29, 0.492, -46.4, -40.2, -55.9, -20.6, -67.2, -34.6, -2.14, -57.7% and inactive: 12.3% | growth (SF-539 CNS; runs of 1996): active: 4.93, -7.87, -68, -44.6, -22.4, 9.23, -70.7, -67.5, 3.65, -50.6, -25, -26.4, -33.9 (2×), 8.31, 6.62, -15.1, 0.537, -25.6, -29, -26, -17, 9.92, -8.28, -5.96, 4.12, -2.78, -4.11, -43.5, -27.8, -14.4, 3.42, -19.9, -19.3, -74.4, -22.2, -7.27, -26.7, -45.3, -35% and inactive: 26.6, 14.9, 10.4, 16.4, 20, 15.4, 27.4, 24.1, 34.2, 42.3, 32% | growth (SF-539 CNS; runs of 1997): active: 4.71, -22.3, -13.2, -23.7, -53.1, 6.05, -1.3, 4.84, -11.5, -48.2, 5.56, 3.34, -11.3, -13.1, -52.1, 4.94, 4.48, 7.06, -31.9, 1.45% and inactive: 15.4, 13.3, 131, 20.4, 15, 31.8, 18.6, 13.4, 11.1, 12.8, 27.4, 15.9, 32.6, 24.4, 10.5% | growth (SF-539 CNS; runs of 1998): inactive: 16.2, 25.5, 35.8, 27, 27.7, 21.8, 17.5, 19.1, 20.6, 20.2% and active: -52.3, -19.1, 5.07, 3.3, -19.7, 4.74, 4.3, -28.9, -39.3, -4.98, -18.9% | growth (SF-539 CNS; runs of 1999): inactive: 30.7%, 28%, 11.7% and active: 7.02, -50.4, -81.8, 0.0623, 1.82, 1.11, -14.4% | growth (SF-539 CNS; runs of 2000): active: -26.5, -14.7, 0.262, -26.6% | growth (UACC-257 melanoma; runs of 1991): active: -21, 8, 9.24, 9.28, 4.56, -11.8, 4.29, 0.208, 4.31, -2.93, -3.08% and inactive: 16, 32.5, 13.3, 40, 28.7, 16.6, 21.1% | growth (UACC-257 melanoma; runs of 1992): active: -5.71, 3.18, 5.39, -2.43, 7.66, -9.4, 6.1, -9.6, -13.5, 1.76, -6.46, -6.5, -22.3, -1.94, 4.34, 1.83, -2.09, 5.18, 8.58, -7.83, 8.64, -20.5, -16.9, 1.33, -6.67, -8.35, -2.03, 7.91, -13.2, 7.21, -32.1, -14.2, 4.55, -6.6, 4.45, 7.48, -14.4, -17.3, -6.25, -8.76, 5.58, -3.95, -6.82, 9.36, -5.53, -15.3, 2.68, 5.46, 4.81, 9.88, -3.7, 9.68, 3.48% and inactive: 10.9, 31.7, 11.8, 13.7, 38.3, 34.5, 31, 17.3 (2×), 54.4, 25.6, 31.8 (2×), 17.8, 14.2, 19.6, 14, 37.3, 33.5 (2×), 34.2 (2×), 23, 28.3, 16.7, 29.1, 28.6, 11, 10.3, 14.3, 22.8 (2×), 44.5, 30.3, 31.9, 112, 16.6, 11.2, 13.4, 38.6, 38, 22.7 (2×), 15.2, 42.9, 22.3, 12.1, 51.8, 49, 38.7, 13.2, 23.4, 28.5, 31.6, 15.8, 16.2, 24, 10, 26.7, 30.9, 43.9, 23.7, 29.6, 34.9, 25.7% | growth (UACC-257 melanoma; runs of 1993): active: -0.954, -14.5, 4.77, 6.59, 7.93, -8.53, 8.69, 3.52, 4.56% and inactive: 16.7, 36.3, 40.5, 11.7, 22.6, 14.1, 40, 23.8, 31.6, 28.9, 29.2, 39.5, 24.8, 37.5 (2×), 12.4, 12.2, 16.9, 17.1, 30.1, 22.5 (2×), 28.6, 28.4, 26.5, 16.3, 18.5, 76.4, 21.7, 128, 32.4, 22.8, 24.7, 41.3% | growth (UACC-257 melanoma; runs of 1994): inactive: 37.4, 20.6, 12.7, 24.2 (2×), 13.8, 11.9, 25.6, 22.3, 18.7, 24.9, 14.6, 35.2, 22.6, 11.6, 27.6, 34.2, 30.6, 29.5, 37.8, 10.1, 34.5, 22.9, 54.1, 34.8, 30, 25.9, 23.8, 20.3, 26.7, 24.7% and active: -2.22%, -27.4%

Reference: PubChem BioAssay (NCI)
